Measurements taken from patent publication US20020031520A1, “PREVENTION AND TREATMENT OF HEPATOCELLULAR CANCER” (priority 1997, published 2002).
Entries after “also recorded” stand apart in the source; their conditions may differ. Part of at least one peptide drawing is inferred or uncertain, most often the ends. Some compounds share one wording; it may come from a single statement. Where no end group is shown, it is not given here.

Assays:
[1] = molecular target: T1, HLA A2.1 (Homo sapiens, UniProt P04439, D140Y/D185E/D98H/E176V/E277Q/G131W/G231S/I119V/I121R/I166T/I218V/L300P/L318F/N151K/N90K/P208A/P217A/Q86G/Q94H/R138H/R169H/T345S); assay: T2 cell stabilization assay; type: binding; settings: peptide tested 0.1 μM-100 μM; flow cytometry with BB7.2; (n.s.) = not stable
[2] = molecular target: T1, HLA A2.1; assay: EBV lymphoblastoid cell off-kinetics assay; type: binding; settings: for Time of Peptide Stability on Lymphoblastoid Cells: pulsed at 200 μM for 1 hour, followed 0, 2, 4 and 6 hours at 37° C., (n.s.) = not stable
Excerpt: The cells were washed at the end of each time point and stained for HLA A2 with the BB7.2 antibody.

[3] = tested on: AFP+/HLA A2.1+ HepG2; assay: 4 hour 51Cr-release assay of peptide-generated CTL against HepG2; type: cell-based, human
Protocol: IL-2 was added twice weekly at 10 units/ml. […] Non-specific NK killing was assessed with the NK sensitive target K562. The CTL were also tested against the HLA A2.1-positive, AFP-positive human hepatocellular carcinoma cell line, HepG2. Referring now to Table III, there are shown the cytotoxicity results of tests for the twelve AFP peptide sequences used to generate CTL from normal donors that gave positive peptide cytotoxicity results. […] Further, new AFP49 peptide-generated CTL cultures were made using two different, normal HLA A2.1 donors. Additional targets were used to confirm that the cytotoxicity observed using AFP49 was AFP antigen-specific and class I restricted. Referring now to FIG. 1, there is shown representative data of these tests. First, to confirm that the observed cytotoxicity was class I restricted, anti-β2 microglobulin antibody was used to block the CTL-T cell receptor interaction on HepG2 cells. […] Next, to eliminate non-specific NK/LAK killing, a 40-fold excess of unlabeled (cold) K562 cells was added. […] Also, an AFP+, HLA A2.1-negative hepatocellular carcinoma cell line, Hep3B, that is, a class I-mismatched hepatocellular carcinoma cell line, was also used as a target. […] This small amount of observed Hep3B lysis was eliminated by adding an excess of cold K562 cells, in contrast to the retention of specific killing of HepG2 when cold K562 cells were added.

[4] = tested on: Hep3B (AFP+, HLA A2.1-negative hepatocellular carcinoma cell line); assay: chromium release assay of AFP49 CTL against class I-mismatched Hep3B; type: cell-based, human; settings: FIG. 1
[5] = tested on: T2 cells pulsed with the specific peptide; settings: FIG. 2; T2 pulsed with specific peptide versus a different HLA A2.1 binding peptide
[6] = tested on: M202 (HLA A2.1+/AFP-) melanoma cells transduced with AdVhAFP; assay: chromium release assay of peptide-specific CTL against M202 cells transduced with AdVhAFP or control AdVRR5; type: cell-based, human; settings: FIG. 2

Sequence	Minimum Concentration of Peptide to Stabilize A2 on T2 cells [1]	Time of Peptide Stability on Lymphoblastoid Cells [2]	specific killing of HepG2 cells (in words) [3]	also measured
FQAITVTKL [AFP45]	100 µM	>6 h	high levels of specific killing	–
GVALQTMKQ [AFP49]	(n.s.)	>6 h	high levels of specific killing; also recorded: HepG2 cytotoxicity was maintained	Hep3B lysis [4]: lysed these Hep3B targets at a very low level; Hep3B lysis with excess of cold K562 cells [4]: eliminated; peptide specificity of CTL culture [5]: showed peptide specificity; off-kinetics (in words) [2]: slow off-kinetics; killing of M202/AdVhAFP versus M202/RR5 [6]: significantly more killing of M202 cells transduced with AdVhAFP; HepG2 lysis with cold K562 cells ([3]; FIG. 1, 40-fold excess of unlabeled (cold) K562 cells): did not result is a significant reduction in HepG2 lysis; HepG2 lysis with anti-β2 microglobulin antibody block ([3]; FIG. 1, anti-β2 microglobulin antibody): significant reduction in HepG2 lysis; HepG2 lysis after MHC class I upregulation ([3]; FIG. 1, overnight incubation with γIFN (50 units/ml)): increased HepG2 lysis
KLVLDVAHV [AFP4]	0.5 µM	(n.s.)	–	–
KQEFLINLV [AFP37]	(n.s.)	<2 h	–	–
LLNFTESRT [AFP7]	50 µM	>6 h	–	–
MKWVESIFL [AFP38]	0.5 µM	<2 h	–	–
NLVKQKPQI [AFP23]	(n.s.)	>6 h	marginal HepG2 killing	–
PVNPGVGQC [AFP39]	(n.s.)	>6 h	high levels of specific killing	–
SIPLFQVPE [AFP6]	(n.s.)	>6 h	–	–
TMKQEFLINL [AFP22]	(n.s.)	4 h	high levels of specific killing	off-kinetics (in words) [2]: slow off-kinetics
